# Test results from the supplement of paper PMC7826260.
# This is one part of the list. Viral Rep nickase domains cut single-stranded DNA in vitro (3 µM enzyme, 1 h, 37 °C); shown is the middle of each 90-letter strand. Values are log2 of uncut reads against the no-enzyme pool; the lower, the more was cut; hits are not called. Shares of all reads are compared; uncut strands gain when others are lost, and binding without cutting may add a little.
# Tested on: T1, Rep nickase domain of tomato golden mosaic virus
# T1 sequence (residues 1-124, tag not shown): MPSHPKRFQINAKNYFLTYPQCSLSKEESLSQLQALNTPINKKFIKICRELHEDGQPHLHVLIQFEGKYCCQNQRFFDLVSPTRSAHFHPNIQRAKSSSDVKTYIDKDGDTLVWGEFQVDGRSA
# Experiment: uncleaved DNA left, log2 of reads against the no-enzyme library (log2 ratio); higher = less cleavage (more negative = more Rep cleavage of the k-mer); sequences stand for … in CTCGTCCG…ACCGGAGA
# Description: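 A pool of 90-nt single-stranded DNAs with seven random bases just before the constant AC of the nick site (name = the seven bases) was cut by 3 µM recombinant His6-SUMO-tagged Rep nickase domain (300 nM DNA, 50 mM HEPES pH 8.0, 50 mM NaCl, 1 mM MnCl2, 1 h, 37 °C, three replicates). Uncut DNA was amplified and sequenced.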
row,Sequence,uncleaved DNA left (log2)
1,GGACATT,-0.153
2,CTCCACC,-0.0935
3,ACAAAGT,0.123
4,AAGATGG,0.0654
5,TTAGATC,0.075
6,CCGTATA,-0.222
7,AGACAAG,0.0667
8,GCCTTAA,0.0989
9,TTGTTTT,-0.224
10,GTTTAAG,0.0487
11,TCATAAA,0.0353
12,TTCTTTT,-0.106
13,TAGAAGT,0.0622
14,GCCTACA,-0.165
15,CTTGAAT,0.0398
16,GGGATCT,-0.116
17,ATAAGGT,0.0229
18,AGGGCAA,0.228
19,TATCCTA,-0.00467
20,TGAAAGA,0.165

row,Sequence,uncleaved DNA left (log2)
1,CCACCAG,-0.11
2,TTGCCTG,-0.0905
3,TAGGTAA,0.0129
4,TCTCACG,-0.0795
5,GCGTGGT,-0.0983
6,CGGGACT,0.0632
7,TCTAACG,-0.0563
8,ATTCAAG,0.0454
9,ATGTTAG,0.0295
10,CTTATGG,-0.0322
11,CCTTGGC,-0.159
12,GAGCACG,0.0301
13,CCCGCTG,0.101
14,TCAGGGT,0.126
15,CGCTGCG,-0.198
16,TGGTCCT,-0.0351
17,ACTCGTT,-0.0702
18,ACGAATA,-0.051
19,TCGCGGA,0.195
20,GAGTATC,-0.00928
